Results taken from the supplement of paper PMC4967469.
pIC50: −log10 of the molar value. By IC50 is meant the dose at which the fit gives 50% viability; where the fit passes the top or lowest dose, that dose stands as a limit. AUC is the area under the same curve over the 256-fold range up to the top dose, as a fraction; the more sensitive the line, the further below 1. For some of these results: Any top dose called inferred was derived from the fitted curves, not read from the paper. For some of these results: Where an entry number is given, a second screen of the drug exists; the two often differ.

Columns and labels:
Assay in all cases: Viability of human cancer cell lines after 72 h of drug (GDSC screen)
[1] = compound: Cc1ccc(C(=O)N(CCCN)[C@@H](c2nc3cc(Cl)ccc3c(=O)n2Cc2ccccc2)C(C)C)cc1 [SB-715992]; conditions: top dose 0.128 µM; top dose inferred
Procedure: (§1)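 Human cancer cell lines in 384-well plates, medium with 10% serum, drug for 72 h over a 256-fold dose range (nine 2-fold or five 4-fold steps up to the top dose). Adherent lines were fixed and stained with the nucleic acid dye Syto60, suspension lines read with resazurin; signal relative to control wells, capped at 0 and 100%. One two-parameter sigmoid per drug and line, fitted in a mixed model over all curves with the slope shared within a line.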

[2] = compound: CN1CCN(c2ccc([N+](=O)[O-])c3no[n+]([O-])c23)CC1 [NSC-207895]; conditions: top dose 20 µM; top dose inferred
Procedure: as §1

[3] = compound: COc1cc(N2CCC(N3CCN(C)CC3)CC2)ccc1Nc1ncc(Cl)c(Nc2ccccc2S(=O)(=O)C(C)C)n1 [NVP-TAE684]; conditions: top dose 2 µM
Procedure: as §1

[4] = compound: O=C(/C=C/c1cccc(S(=O)(=O)Nc2ccccc2)c1)NO [Belinostat]; conditions: top dose 20 µM; top dose inferred
Procedure: as §1

[5] = compound: CC1(C)CNc2cc(NC(=O)c3cccnc3NCc3ccncc3)ccc21 [AMG-706]; conditions: top dose 2 µM; top dose inferred
Procedure: as §1

[6] = compound: COCC[n+]1c2c(n(Cc3cnccn3)c1C)C(=O)c1ccccc1C2=O [YM155]; conditions: top dose 5.12 µM
Procedure: as §1

[7] = compound: C[C@]1(O)C[C@@H](c2nc(-c3ccc4ccc(-c5ccccc5)nc4c3)c3c(N)nccn32)C1 [OSI-906]; conditions: top dose 2.56 µM; top dose inferred
Procedure: as §1

[8] = compound: CC(=O)O[C@@]12CO[C@@H]1C[C@H](O)[C@@]1(C)C(=O)[C@H](O)C3=C(C)[C@@H](OC(=O)[C@H](O)[C@@H](NC(=O)OC(C)(C)C)c4ccccc4)C[C@@](O)([C@@H](OC(=O)c4ccccc4)[C@H]21)C3(C)C [Docetaxel]; conditions: top dose 0.0125 µM
Procedure: as §1

[9] = compound: OCCCNc1cc(-c2ccnc(Nc3cccc(Cl)c3)n2)ccn1 [CGP-60474]; conditions: top dose 0.256 µM; top dose inferred
Procedure: as §1

[10] = compound: c1ccc2c(CCNc3ccc(Nc4ccncc4)cc3)c[nH]c2c1 [JNJ-26854165]; conditions: top dose 10 µM
Procedure: as §1

[11] = compound: COC(=O)[C@H](CCSC)NC(=O)c1ccc(NC[C@@H](N)CS)cc1-c1ccccc1 [FTI-277]; conditions: top dose 1.024 µM; top dose inferred
Procedure: as §1

[12] = compound: CC1=C2C[C@H]3[C@@H](CC=C4C[C@@H](O)CC[C@@]43C)[C@@H]2CC[C@]12O[C@@H]1C[C@H](C)CN[C@H]1[C@H]2C [Cyclopamine]; conditions: top dose 16 µM; top dose inferred
Procedure: as §1

[13] = compound: Cc1sc2c(c1C)C(c1ccc(Cl)cc1)=N[C@@H](CC(=O)OC(C)(C)C)c1nnc(C)n1-2 [JQ1]
Procedure: as §1

[14] = compound: CCOc1nc(NC(=O)Cc2cc(OC)ccc2OC)cc(N)c1C#N [JNK Inhibitor VIII]; conditions: top dose 10 µM; top dose inferred
Procedure: as §1

[15] = top dose 1 µM, screen: GDSC drug entry 1218, top dose inferred
[16] = top dose 2.56 µM, screen: GDSC drug entry 163

Cell Line | AUC [1] | pIC50 [1] | AUC [2] | pIC50 [2] | AUC [3] | pIC50 [3] | AUC [4] | pIC50 [4] | AUC [5] | pIC50 [5] | AUC [6] | pIC50 [6] | AUC [7] | pIC50 [7] | AUC [8] | pIC50 [8] | AUC [9] | pIC50 [9] | AUC [10] | pIC50 [10] | AUC [11] | pIC50 [11] | AUC [12] | pIC50 [12] | AUC [13, 15] | pIC50 [13, 15] | AUC [13, 16] | pIC50 [13, 16] | AUC [14] | pIC50 [14]
A4-Fuk (B-cell lymphoma, suspension) | 0.831 | 7.07 | 0.891 | < 4.70 | 0.399 | 7.19 | 0.75 | 5.17 | 0.985 | < 5.70 | 0.194 | 7.43 | 0.287 | 7.41 | 0.879 | < 7.90 | 0.588 | 7.55 | 0.816 | 5.23 | 0.98 | < 5.99 | 0.985 | < 4.80 | 0.983 | < 6.00 | 0.553 | 6.65 | 0.986 | < 5.00
A253 (head and neck, adherent) | 0.858 | 7.00 | 0.986 | < 4.70 | 0.972 | < 5.70 | 0.717 | 5.30 | 0.982 | < 5.70 | 0.053 | > 7.70 | 0.988 | < 5.59 | 0.811 | 8.19 | 0.728 | 7.16 | 0.865 | 5.07 | 0.987 | < 5.99 | 0.986 | < 4.80 | 0.988 | < 6.00 | 0.848 | 5.74 | 0.984 | < 5.00
BC-1 (B-cell lymphoma, suspension) | 0.537 | 8.00 | 0.792 | 5.12 | 0.975 | < 5.70 | 0.282 | 6.47 | 0.991 | < 5.70 | 0.017 | > 7.70 | 0.933 | < 5.59 | 0.986 | < 7.90 | 0.76 | 7.11 | 0.915 | < 5.00 | 0.973 | < 5.99 | 0.961 | < 4.80 | 0.663 | 6.79 | 0.439 | 6.95 | 0.979 | < 5.00
CHP-126 (neuroblastoma, suspension) | – | – | 0.94 | < 4.70 | 0.774 | 6.09 | 0.69 | 5.36 | 0.942 | < 5.70 | 0.217 | 7.34 | 0.79 | 5.93 | 0.987 | < 7.90 | 0.764 | 7.02 | 0.965 | < 5.00 | 0.982 | < 5.99 | 0.985 | < 4.80 | 0.986 | < 6.00 | 0.734 | 6.12 | 0.985 | < 5.00
CMK (acute myeloid leukaemia, suspension) | 0.714 | 7.54 | 0.832 | 4.99 | 0.62 | 6.60 | 0.112 | 7.03 | 0.99 | < 5.70 | 0.111 | 7.62 | 0.736 | 6.18 | 0.96 | < 7.90 | 0.83 | 6.89 | 0.964 | < 5.00 | 0.991 | < 5.99 | 0.935 | < 4.80 | 0.715 | 6.65 | 0.446 | 6.93 | 0.98 | < 5.00
COLO-684 (endometrium, suspension) | 0.824 | 7.05 | 0.814 | 4.90 | 0.956 | < 5.70 | 0.547 | 5.77 | 0.965 | < 5.70 | 0.043 | > 7.70 | 0.981 | < 5.59 | 0.929 | < 7.90 | 0.77 | 6.96 | 0.936 | < 5.00 | 0.976 | < 5.99 | 0.97 | < 4.80 | 0.9 | < 6.00 | 0.825 | 5.75 | 0.981 | < 5.00
COR-L95 (small cell lung carcinoma, adherent) | 0.932 | < 6.89 | 0.862 | < 4.70 | 0.833 | 5.80 | 0.416 | 6.15 | 0.975 | < 5.70 | 0.286 | 7.15 | 0.906 | < 5.59 | 0.924 | < 7.90 | 0.815 | 6.77 | 0.884 | < 5.00 | 0.987 | < 5.99 | 0.972 | < 4.80 | 0.983 | < 6.00 | 0.983 | < 5.59 | 0.975 | < 5.00
CW-2 (large intestine, adherent) | 0.987 | < 6.89 | 0.962 | < 4.70 | 0.98 | < 5.70 | 0.47 | 5.99 | 0.989 | < 5.70 | 0.908 | < 5.29 | 0.989 | < 5.59 | 0.956 | < 7.90 | 0.976 | < 6.59 | 0.849 | 5.07 | 0.989 | < 5.99 | 0.987 | < 4.80 | 0.988 | < 6.00 | 0.989 | < 5.59 | 0.988 | < 5.00
